The list shows a part of the results.
How the values were obtained:
Assay in all cases: glycan array binding signal (z-score within array); higher = stronger binding
Conditions in all cases: glycan notation: IUPAC condensed, linker removed
[1] = biological target: Gal(b1-4)GlcNAc(b1-2)Man(a1-6)Man(b1-4)GlcNAc(b1-4)GlcNAc
In short: (§1)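 Glycan array data came from 3228 arrays in the Consortium for Functional Glycomics database, and only arrays with an available protein sequence were kept. Glycan names were put into IUPAC-condensed notation, and columns mapping to the same glycan were averaged. The binding signal is a within-array Z-score, averaged across arrays of one protein sequence run at different concentrations or buffers and across linkers. A negative Z-score can be read as non-binding.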

[2] = biological target: Gal(b1-4)GlcNAc(b1-2)Man(a1-6)[GlcNAc(b1-2)Man(a1-3)]Man(b1-4)GlcNAc(b1-4)GlcNAc
In short: as §1

[3] = biological target: Gal(b1-4)GlcNAc(b1-2)Man(a1-6)[Man(a1-3)]Man(b1-4)GlcNAc(b1-4)GlcNAc
In short: as §1

[4] = biological target: Gal(b1-4)GlcNAc(b1-2)[Gal(b1-4)GlcNAc(b1-4)]Man(a1-3)[Gal(b1-4)GlcNAc(b1-2)Man(a1-6)]Man(b1-4)GlcNAc(b1-4)GlcNAc
In short: as §1

[5] = biological target: Gal(b1-4)GlcNAc(b1-2)[Gal(b1-4)GlcNAc(b1-4)]Man(a1-3)[Gal(b1-4)GlcNAc(b1-2)[Gal(b1-4)GlcNAc(b1-6)]Man(a1-6)]Man(b1-4)GlcNAc(b1-4)GlcNAc
In short: as §1

[6] = biological target: Gal(b1-4)GlcNAc(b1-3)Gal(b1-3)GlcNAc
In short: as §1

[7] = biological target: Gal(b1-4)GlcNAc(b1-3)Gal(b1-4)Glc
In short: as §1

[8] = biological target: Gal(b1-4)GlcNAc(b1-3)Gal(b1-4)GlcNAc
In short: as §1

[9] = biological target: Gal(b1-4)GlcNAc(b1-3)Gal(b1-4)GlcNAc(b1-3)Gal(b1-4)GlcNAc
In short: as §1

[10] = biological target: Gal(b1-4)GlcNAc(b1-3)Gal(b1-4)[Fuc(a1-3)]GlcNAc(b1-3)Gal(b1-4)[Fuc(a1-3)]GlcNAc
In short: as §1

[11] = biological target: Gal(b1-4)GlcNAc(b1-3)GalNAc
In short: as §1

[12] = biological target: Gal(b1-4)GlcNAc(b1-3)[Gal(b1-4)GlcNAc(b1-6)]Gal(b1-4)GlcNAc
In short: as §1

[13] = biological target: Gal(b1-4)GlcNAc(b1-3)[Gal(b1-4)GlcNAc(b1-6)]GalNAc
In short: as §1

[14] = biological target: Gal(b1-4)GlcNAc(b1-3)[GlcNAc(b1-6)]Gal(b1-4)GlcNAc
In short: as §1

[15] = biological target: Gal(b1-4)GlcNAc(b1-6)Gal(b1-4)GlcNAc
In short: as §1

[16] = biological target: Gal(b1-4)GlcNAc(b1-6)Gal(b1-4)GlcNAc(b1-6)GalNAc
In short: as §1

[17] = biological target: Gal(b1-4)GlcNAc(b1-6)GalNAc
In short: as §1

[18] = biological target: Gal(b1-4)GlcNAc(b1-6)[Gal(b1-3)]GalNAc
In short: as §1

Gal3S(b1-3)GalNAc = biological target: Gal3S(b1-3)GalNAc
In short: as §1

Gal3S(b1-3)GlcNAc = biological target: Gal3S(b1-3)GlcNAc
In short: as §1

[19] = biological target: Gal3S(b1-3)[Fuc(a1-4)]GlcNAc
In short: as §1

Gal3S(b1-4)Glc = biological target: Gal3S(b1-4)Glc
In short: as §1

Gal3S(b1-4)Glc6S = biological target: Gal3S(b1-4)Glc6S
In short: as §1

Gal3S(b1-4)GlcNAc = biological target: Gal3S(b1-4)GlcNAc
In short: as §1

Gal3S(b1-4)GlcNAc6S = biological target: Gal3S(b1-4)GlcNAc6S
In short: as §1

[20] = biological target: Gal3S(b1-4)[Fuc(a1-3)]Glc
In short: as §1

[21] = biological target: Gal3S(b1-4)[Fuc(a1-3)]Glc6S
In short: as §1

Gal3S4S(b1-4)GlcNAc = biological target: Gal3S4S(b1-4)GlcNAc
In short: as §1

Gal3S6S(b1-4)GlcNAc = biological target: Gal3S6S(b1-4)GlcNAc
In short: as §1

Gal3S6S(b1-4)GlcNAc6S = biological target: Gal3S6S(b1-4)GlcNAc6S
In short: as §1

Gal4S(b1-4)GlcNAc = biological target: Gal4S(b1-4)GlcNAc
In short: as §1

Gal4S6S(b1-4)GlcNAc = biological target: Gal4S6S(b1-4)GlcNAc
In short: as §1

Gal6S(b1-4)Glc = biological target: Gal6S(b1-4)Glc
In short: as §1

Gal6S(b1-4)Glc6S = biological target: Gal6S(b1-4)Glc6S
In short: as §1

Gal6S(b1-4)GlcNAc = biological target: Gal6S(b1-4)GlcNAc
In short: as §1

Gal6S(b1-4)GlcNAc6S = biological target: Gal6S(b1-4)GlcNAc6S
In short: as §1

GalNAc(a1-3)Gal = biological target: GalNAc(a1-3)Gal
In short: as §1

GalNAc(a1-3)GalNAc = biological target: GalNAc(a1-3)GalNAc
In short: as §1

B1: CLEC-1 (Homo sapiens), Q9NZH3 (protein)
chain: MQAKYSSTRDMLDDDGDTTMSLHSQASATTRHPEPRRTEHRAPSSTWRPVALTLLTLCLVLLIGLAAWGLLFFQYYQLSNTGQDTISQMEERLGNTSQELQSLQVQNIKLAGSLQHVAEKLCRELYNKAGAHRCSPCTEQWKWHGDNCYQFYKDSKSWEDCKYFCLSENSTMLKINKQEDLEFAASQSYSEFFYSYWTGLLRPDSGKAWLWMDGTPFTSELFHIIIDVTSPRSRDCVAILNGMIFSKDCKELKRCVCERRAGMVKPESLHVPPETLGEGD
glycan array binding signal (z-score) [1]: 1.12 | glycan array binding signal (z-score) [2]: -0.462 | glycan array binding signal (z-score) [3]: -0.051 | glycan array binding signal (z-score) [4]: -0.045 | glycan array binding signal (z-score) [5]: -0.142 | glycan array binding signal (z-score) [6]: -0.308 | glycan array binding signal (z-score) [7]: 0.23 | glycan array binding signal (z-score) [8]: -0.26 | glycan array binding signal (z-score) [9]: -0.162 | glycan array binding signal (z-score) [10]: 0.143 | glycan array binding signal (z-score) [11]: -0.261 | glycan array binding signal (z-score) [12]: -0.521 | glycan array binding signal (z-score) [13]: -0.279 | glycan array binding signal (z-score) [14]: 0.05 | glycan array binding signal (z-score) [15]: 1.75 | glycan array binding signal (z-score) [16]: -0.203 | glycan array binding signal (z-score) [17]: 0.105 | glycan array binding signal (z-score) [18]: -0.132 | glycan array binding signal (z-score) (Gal3S(b1-3)GalNAc): -0.341 | glycan array binding signal (z-score) (Gal3S(b1-3)GlcNAc): -0.358 | glycan array binding signal (z-score) [19]: 1.09 | glycan array binding signal (z-score) (Gal3S(b1-4)Glc): -0.133 | glycan array binding signal (z-score) (Gal3S(b1-4)Glc6S): 0.212 | glycan array binding signal (z-score) (Gal3S(b1-4)GlcNAc): -0.161 | glycan array binding signal (z-score) (Gal3S(b1-4)GlcNAc6S): 0.002 | glycan array binding signal (z-score) [20]: 0.393 | glycan array binding signal (z-score) [21]: 0.318 | glycan array binding signal (z-score) (Gal3S4S(b1-4)GlcNAc): 0.269 | glycan array binding signal (z-score) (Gal3S6S(b1-4)GlcNAc): 0.184 | glycan array binding signal (z-score) (Gal3S6S(b1-4)GlcNAc6S): 3.17 | glycan array binding signal (z-score) (Gal4S(b1-4)GlcNAc): -0.356 | glycan array binding signal (z-score) (Gal4S6S(b1-4)GlcNAc): 0.053 | glycan array binding signal (z-score) (Gal6S(b1-4)Glc): -0.213 | glycan array binding signal (z-score) (Gal6S(b1-4)Glc6S): 0.159 | glycan array binding signal (z-score) (Gal6S(b1-4)GlcNAc): -0.252 | glycan array binding signal (z-score) (Gal6S(b1-4)GlcNAc6S): 0.66 | glycan array binding signal (z-score) (GalNAc(a1-3)Gal): -0.34 | glycan array binding signal (z-score) (GalNAc(a1-3)GalNAc): 0.165
